# According to publication PMC4336329 (PLoS ONE, 2015):
# Among all 310,000 compounds or so, about 2,200 (0.71%) showed an effect of 50% or more. Effects have a minus sign here. This is one part of the list.
# Molecular target: human ether-à-go-go-related gene (hERG) potassium channel (human, UniProt Q12809)
# Test: primary screen, population patch clamp on CHO cells stably expressing hERG
# human ether-à-go-go-related gene (hERG) potassium channel, sequence (Q12809 whole entry, looked up): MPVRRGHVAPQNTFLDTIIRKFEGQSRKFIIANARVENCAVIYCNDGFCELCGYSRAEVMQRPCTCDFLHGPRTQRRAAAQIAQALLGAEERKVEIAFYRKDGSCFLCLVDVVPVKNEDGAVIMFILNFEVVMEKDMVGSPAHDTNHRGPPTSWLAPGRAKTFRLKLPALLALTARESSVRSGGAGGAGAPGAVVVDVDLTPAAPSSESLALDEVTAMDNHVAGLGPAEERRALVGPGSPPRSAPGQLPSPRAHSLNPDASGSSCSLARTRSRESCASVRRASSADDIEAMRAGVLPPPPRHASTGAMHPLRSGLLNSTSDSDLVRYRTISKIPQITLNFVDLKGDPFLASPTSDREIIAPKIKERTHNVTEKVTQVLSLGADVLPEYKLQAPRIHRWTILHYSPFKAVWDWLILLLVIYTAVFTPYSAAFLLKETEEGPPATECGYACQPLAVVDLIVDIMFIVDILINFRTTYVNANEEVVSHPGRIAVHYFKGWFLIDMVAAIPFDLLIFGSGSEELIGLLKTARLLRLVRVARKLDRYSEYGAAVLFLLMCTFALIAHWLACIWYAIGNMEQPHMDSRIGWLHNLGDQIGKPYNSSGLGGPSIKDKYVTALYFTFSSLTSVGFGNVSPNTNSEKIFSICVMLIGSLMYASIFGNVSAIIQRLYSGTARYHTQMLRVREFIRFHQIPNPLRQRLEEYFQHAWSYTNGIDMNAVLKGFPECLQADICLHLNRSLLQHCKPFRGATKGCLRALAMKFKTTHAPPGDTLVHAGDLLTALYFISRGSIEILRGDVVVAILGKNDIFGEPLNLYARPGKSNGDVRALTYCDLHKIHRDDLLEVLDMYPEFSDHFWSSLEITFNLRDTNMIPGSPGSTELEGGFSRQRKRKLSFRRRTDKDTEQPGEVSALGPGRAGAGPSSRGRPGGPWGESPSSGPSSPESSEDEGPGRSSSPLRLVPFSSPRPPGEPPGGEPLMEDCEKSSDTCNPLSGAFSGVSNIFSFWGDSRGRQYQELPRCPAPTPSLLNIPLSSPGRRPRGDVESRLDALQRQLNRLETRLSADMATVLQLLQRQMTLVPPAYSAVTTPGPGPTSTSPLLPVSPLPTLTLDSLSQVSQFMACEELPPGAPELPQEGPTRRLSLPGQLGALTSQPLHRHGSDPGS
row,SMILES,"hERG current change (%, negative = inhibition) at 1uM [%]"
1,COc1ccc(OCC(=O)N2CCN(Cc3ccc(SC)cc3)CC2)cc1.O=C(O)C(=O)O,-16.7
2,COc1ccc(C(=O)Nc2nccs2)cc1[N+](=O)[O-],20.8
3,C[C@H](O)Cc1cn(-c2cc3cc(C#Cc4ccsc4)ccc3oc2=O)nn1,13.5
4,Cc1ccc(OCC(=O)O/N=C(\N)Cc2cccs2)cc1C,10.4
5,CC1CN(CCCCOc2cccc(Oc3ccccc3)c2)CC(C)O1.O=C(O)C(=O)O (stereo not shown),-1.37
6,COc1ccc(CNS(=O)(=O)c2ccc(C3CNC(=O)C3)cc2)cc1 (stereo not shown),0.734
7,COc1cccc(CN(C)CC(=O)Nc2cccc3ccccc23)c1.O=C(O)C(=O)O,10.5
8,O=C(CCCOc1ccc(Cl)cc1Cl)NNC(=O)c1ccc(NC(=O)c2ccccc2)cc1,10.6
9,COc1ccc([C@H]2CC(=O)C=C(c3cc(F)ccc3F)C2)cc1OC,11.4
10,COc1cc(C2NC(=O)NC(c3ccccc3)=C2C(C)=O)cc(Cl)c1OCC(=O)O (stereo not shown),6.78
11,CCOc1ccc(C(=O)Nc2cccc([N+](=O)[O-])c2)cc1Br,2.1
12,O=C(N/N=C/c1ccccn1)c1cc(Br)ccc1O,4.71
13,N#CC1(NC(=O)COC(=O)CCCN=C2NS(=O)(=O)c3ccccc32)CCCCC1,13.9
14,CCOC(=O)C1=C(COc2ccc(C)cc2)NC(=O)NC1c1cc(C)ccc1C (stereo not shown),21.2
15,Cc1nc(NCCCn2ccnc2)c2oc3ccccc3c2n1.Cl,-47.5
16,CSc1nc(C2CC2)cc(-c2cccs2)c1C#N,12.2
17,O=C(/C=C/c1cccc([N+](=O)[O-])c1)c1ccco1,7.19
18,COc1ccc(-n2cc(-c3ccccc3)c3c(N4CCN(CCO)CC4)ncnc32)cc1,-4.15
19,Cc1ccc(S(=O)(=O)Nc2cccc(-c3ccc(N4CCCCCC4)nn3)c2)cc1C,16.1
20,O=C(CSc1nc(O)cc(=O)n1-c1ccc(Cl)c(Cl)c1)Nc1ccc(Cl)cc1Cl,11.3
21,O=C(Nc1ccccc1-c1ccccc1)c1ccc(NC(=O)c2ccco2)cc1,6.82
22,COc1cc2c(cc1OC)-c1cc3ccc(OC)c(OC)c3c[n+]1CC2.[Cl-],11.5

row,SMILES,"hERG current change (%, negative = inhibition) at 1uM [%]"
1,Cc1nn(C)cc1CN(C)C(=O)CC12CC3CC(CC(C3)C1)C2,13.1
2,CCN(CC)CCCNC(=O)c1ccccc1NC(=O)C1=CSCCO1,5.12
3,COc1ccc(S(=O)(=O)N2CCOCC2)cc1NC(=O)CSc1n[nH]c(=O)n1C1CC1,9.1
4,O=C(c1cccs1)N1CCN(c2ncccn2)CC1,2.95
5,CCN(CC(=O)NC(C)C)C(=O)C(CCSC)NC(=O)c1cccc(C)c1 (stereo not shown),8.43
6,CC(Cl)C(=O)Nc1cc(C(F)(F)F)ccc1N1CCOCC1 (stereo not shown),4.37
7,O=C(N/N=C/c1ccncc1)c1cc([N+](=O)[O-])cc([N+](=O)[O-])c1O,6.52
8,COc1cccc(-c2nn(C)c3sc(C(=O)NCc4ccco4)cc23)c1,8.32
9,COc1ccc(S(=O)(=O)NCC2CCC(C(=O)NCc3ccc(F)cc3)CC2)cc1 (stereo not shown),13.1
10,CCOC(=O)c1cc(C)sc1NC(=O)CSc1nnnn1C,8.11
11,COc1cc(C)c(S(=O)(=O)NCCCn2ccnc2)cc1C,12.8
12,COC(=O)Nc1ccc(S(=O)(=O)N2c3ccccc3CCC2C)cc1 (stereo not shown),0.641
13,CCOC(=O)COc1cc(OCC(=O)OCC)c2c3c(c(=O)oc2c1)CCCC3,14.5
14,CN(Cc1c(C(=O)N/N=C/c2ccccc2)nnn1-c1nonc1N)C1CCCCC1,10.3
15,Cc1ccc(S(=O)(=O)N2CCCC(C(=O)N3CCN(c4ccccc4)CC3)C2)cc1 (stereo not shown),-0.073
16,Cc1ccc(Cn2cc(/C=C/C(=O)O)c(-c3ccccc3)n2)cc1,6.62
17,CCC(NC(=S)NC1CCCCC1)c1ccccc1 (stereo not shown),11.9
18,C#Cc1cccc(C(=O)N2CCCC(Nc3cccc(F)c3)C2)c1 (stereo not shown),2.4
19,CC(=O)N1c2ccc(S(=O)(=O)NCCC(=O)N3CCC(C)CC3)cc2CC1C (stereo not shown),13.5
20,O=C(COc1ccc2ccccc2c1)Nc1cccc(C(=O)Nc2ccccc2C(=O)O)c1,10.4
21,O=C(CCSc1ccccc1Cl)Nc1cccc([N+](=O)[O-])c1,0.0505
22,CC(C)(C)[C@H]1C=C(C(=O)Nc2ccccc2)O[C@@H](OCCCCO)C1,13.4

row,SMILES,"hERG current change (%, negative = inhibition) at 1uM [%]"
1,Cn1c(=O)oc2cc(S(=O)(=O)CCC(=O)Nc3ccccc3)ccc21,24.5
2,CC(C)OC(=O)Nc1ccc(N=C(N)N[N+](=O)[O-])cc1,8.63
3,CCn1c(CN2CCN(Cc3ccc(C)cc3)C(CCO)C2)nc2ccccc21 (stereo not shown),-50.5
4,CC(C)NC(=O)C1COc2ccccc2O1 (stereo not shown),20.7
5,O=C(Nc1ccccc1)Nc1ccc2ccccc2n1,7.12
6,CC(=O)c1cccc(NC(=O)N2CCCC2C(=O)NC2CCCCC2)c1 (stereo not shown),15.8
7,Cc1ccc(S(=O)(=O)N2CC(C)N(S(C)(=O)=O)C2)cc1 (stereo not shown),14.4
8,CCCn1c(NC(=O)c2ccccc2Br)nc2ccccc21,14.9
9,Cc1ccc(S(=O)(=O)N2CCN(C(=O)COC(=O)CNC(=O)c3ccc(Cl)cc3Cl)CC2)cc1,10.9
10,COc1ccc(N2CCN(CC(O)COc3ccc([N+](=O)[O-])cc3)CC2)cc1.Cl (stereo not shown),-45.5
11,CC(=O)Nc1nc(-c2cc([N+](=O)[O-])cs2)cs1,16.6
12,N#CC1=C(N)NC(SCC(=O)O)=C(C#N)C12CCCC2,2.54
13,COc1ccc(CCNC(=O)CCCCCN2C(=O)[C@@H]3Cc4ccccc4CN3C2=O)cc1OC,-2.73
14,Cc1ccccc1CN(c1ccc(C(N)=O)cc1)S(C)(=O)=O,-5.7
15,Cl.OC(COCc1ccccc1F)CN1CCCCC1 (stereo not shown),8.92
16,COc1ccc(-c2c3c(nc4sc(C(=O)Nc5cc(C)on5)c(N)c24)CCC3)cc1,4.77
17,O=C(COC(=O)c1n[nH]c2ccccc12)Nc1ccccc1,4.91
18,COc1cccc(NC(=O)C2CCC2)c1,9.17
19,COc1ccn(C)c(=O)c1C#N,12.8
20,Cc1ccc(CN(C)CC(=O)Nc2ccccc2C(=O)NC2CC2)o1,4.6
21,Cc1sc2ncnc(NCC(O)c3ccccc3)c2c1C (stereo not shown),13.7
22,O=C1[C@@H]2[C@@H]3C[C@@H]([C@H]4ON=C(c5ccc(Cl)cc5Cl)[C@@H]34)[C@@H]2C(=O)N1C1CCCCC1,8.29

row,SMILES,"hERG current change (%, negative = inhibition) at 1uM [%]"
1,O=C(CCN1CCN(c2ccccc2)CC1)c1ccc(Br)cc1,-0.103
2,CCOC(CNC(=O)Cn1nc(Cc2ccncc2)c2ccccc2c1=O)OCC,15.1
3,Cc1ccc(-n2cc(C(=O)c3ccc(N4CCN(C)CC4)cc3)nn2)cc1Cl,14
4,COc1cccc(NC(=O)c2ccc(CN3CCOCC3)cc2)c1,8.82
5,Oc1ccc(N2CCN(c3ccnc4cc(Cl)ccc34)CC2)cc1,5.36
6,COc1ccc(C2/C=C\CN(C(=O)Nc3ccccc3)CC(=O)N2Cc2ccc(F)cc2)cc1 (stereo not shown),11.1
7,COc1cccc(OCC(=O)NNC(=O)c2cccs2)c1,9.89
8,Cc1ccc(N2CC(NC(=O)C(=O)c3c(C)[nH]c4ccccc34)CC2=O)cc1 (stereo not shown),-19.6
9,CN(Cc1nc(-c2ccccn2)no1)S(=O)(=O)c1ccc(Cl)cc1,3.37
10,COc1cccc(OCC(O)CN2CCOCC2)c1.Cl (stereo not shown),14.2
11,Cc1ccc(-c2nc(NC(=O)CSc3nnc4scc(-c5ccccc5)n34)ns2)cc1,3.14
12,CCN(CC(=O)NCc1ccccc1Cl)CC(=O)Nc1c(F)cccc1F.O=C(O)C(=O)O,7.28
13,CS(=O)(=O)N1CCC(C(=O)NCC2CCCO2)CC1 (stereo not shown),11.3
14,O=[N+]([O-])c1cc(-c2csc(NCCc3nc4cc(C(F)(F)F)ccc4n3CCCO)n2)ccc1Cl,1.8
15,CSc1ncc(CN2CCN(C(C)C)C(CCO)C2)cn1 (stereo not shown),9.96
16,CCOC(=O)N1CCN(C(=O)/C(=C/c2ccc(N(C)C)cc2)NC(=O)c2ccccc2)CC1,11.8
17,Cc1c(OCC(=O)N2CCC(C(N)=O)CC2)ccc2c3c(c(=O)oc12)CCCC3,18
18,Cc1cc(C)nc(SCc2nc3ccccc3n2C)n1,8.87
19,O=C(O)c1cccnc1SCC(=O)N1CCCc2ccccc21,13.2
20,N#Cc1ccc(NCC(=O)Nc2ccc3c(c2)OCCO3)cc1,7.6
21,Cc1ccc(NC(=O)NNC(=O)c2ccccc2)cc1,18.2
22,CCn1c(CNc2ccc(Cl)cc2)nnc1SCC(=O)NCc1ccccc1,-14.8
